Data from publication PMC4336329 (PLoS ONE, 2015).
About 14,000 (4.5%) of roughly 310,000 compounds showed an effect of 50% or more. The effect is printed as a negative number. The list shows a part of the results.

Target: human ether-à-go-go-related gene (hERG) potassium channel (human, UniProt Q12809)
Experiment: primary screen, population patch clamp on CHO cells stably expressing hERG
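Note: peak tail current of the secondary pulse compared with the same well before compound.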

Chain of human ether-à-go-go-related gene (hERG) potassium channel (Q12809 whole entry, looked up): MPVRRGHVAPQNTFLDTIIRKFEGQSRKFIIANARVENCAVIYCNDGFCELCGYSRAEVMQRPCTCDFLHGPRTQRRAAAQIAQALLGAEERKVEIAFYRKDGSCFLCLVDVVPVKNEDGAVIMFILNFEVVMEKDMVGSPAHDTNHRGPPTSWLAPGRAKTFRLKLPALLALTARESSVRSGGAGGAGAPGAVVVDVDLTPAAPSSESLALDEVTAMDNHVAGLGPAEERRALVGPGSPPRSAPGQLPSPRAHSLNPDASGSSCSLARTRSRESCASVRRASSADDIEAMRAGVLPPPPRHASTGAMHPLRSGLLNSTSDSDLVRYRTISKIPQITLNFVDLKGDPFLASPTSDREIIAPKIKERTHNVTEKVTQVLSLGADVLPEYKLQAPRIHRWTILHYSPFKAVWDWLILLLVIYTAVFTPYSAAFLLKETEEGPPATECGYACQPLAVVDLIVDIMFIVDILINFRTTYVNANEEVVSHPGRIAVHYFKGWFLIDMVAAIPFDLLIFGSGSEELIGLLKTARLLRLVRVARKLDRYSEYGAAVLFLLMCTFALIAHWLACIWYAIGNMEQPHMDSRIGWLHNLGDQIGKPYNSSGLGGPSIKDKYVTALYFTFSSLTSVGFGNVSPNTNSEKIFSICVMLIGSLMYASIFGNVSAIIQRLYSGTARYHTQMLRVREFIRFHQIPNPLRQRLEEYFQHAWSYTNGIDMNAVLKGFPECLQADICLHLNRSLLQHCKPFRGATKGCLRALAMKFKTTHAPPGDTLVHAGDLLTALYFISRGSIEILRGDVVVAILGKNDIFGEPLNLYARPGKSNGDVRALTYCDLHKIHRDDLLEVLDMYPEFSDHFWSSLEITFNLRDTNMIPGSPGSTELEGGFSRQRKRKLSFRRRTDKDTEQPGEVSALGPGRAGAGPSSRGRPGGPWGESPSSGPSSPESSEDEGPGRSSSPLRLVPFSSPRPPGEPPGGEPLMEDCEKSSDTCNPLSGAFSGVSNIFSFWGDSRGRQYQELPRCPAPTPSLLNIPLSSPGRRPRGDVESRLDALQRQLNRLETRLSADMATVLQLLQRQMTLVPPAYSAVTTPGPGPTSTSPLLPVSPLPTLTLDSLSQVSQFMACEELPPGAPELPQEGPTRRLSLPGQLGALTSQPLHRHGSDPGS

Row | Compound | hERG current change (%, negative = inhibition) at 10uM [%]
1 | O=C1CCCC2=C1C(c1ccncc1)c1c(nc(SCc3ccccc3Cl)[nH]c1=O)N2 (centres unmarked) | 3.87
2 | CC1CCN(C(=O)COc2coc(CN3CCc4ccccc43)cc2=O)CC1 | -26.1
3 | COc1ccccc1OCCCC(=O)Nc1nccs1 | 7.81
4 | Cc1ccc2nc(/N=C(\N)NC(=O)N3c4ccccc4Sc4ccccc43)nc(C)c2c1 | 1.61
5 | C=CCN1c2ccccc2[C@]23C[C@@H](C(=O)OC)N(C(=O)c4cccs4)C2=NC(C(=O)OC)=C(C(=O)OC)[C@H]13 | -27.3
6 | Clc1ccc(CN2CCN(c3ccccc3)CC2)cn1 | 10.4
7 | Cc1cccc(-n2c(=S)[nH]c3ccccc3c2=O)n1 | 14.8
8 | CN(C)S(=O)(=O)c1ccc(NC=O)cc1 | 39.3
9 | COc1ccc(C(CC(=O)N2CCC3(CC2)OCCO3)NS(=O)(=O)c2ccc(OC)cc2)cc1 (centres unmarked) | 7.14
10 | Cc1ccc(C2/C(=C(/O)c3ccc(Br)cc3)C(=O)C(=O)N2Cc2ccco2)o1 (centres unmarked) | 24
11 | CCCCCCCC(=O)NNC(=O)c1c(O)c2ccccc2[nH]c1=O | 6.82
12 | CC(C)C[C@H](NC(=O)N1CCn2c1nc1ccccc12)C(=O)NCCc1ccccc1 | -21.2
13 | COc1cc2c(c(OC)c1OC)-c1ccc(NC(=O)c3ccccc3)c(=O)cc1[C@@H](NC(C)=O)CC2 | -13.4
14 | O=C(N=Nc1c(O)[nH]c2ccc(F)cc12)c1ccc(NS(=O)(=O)c2cccs2)cc1 | 13.4
15 | Cc1oc(-c2ccc3ccccc3c2)nc1CN(C)C(C)c1ccncn1 (centres unmarked) | -49.8
16 | Cc1ccc(-c2nc(CS(=O)CC(=O)NCCN3CCOCC3)c(C)o2)cc1 (centres unmarked) | 1.94
17 | Cc1c(C)n(CC(O)CN(CCO)CCO)c2ccccc12.Cl (centres unmarked) | 38.5
18 | CCN1C(=O)CC(c2ccccc2)CC1=O | 13
19 | Cc1ccc(S(=O)(=O)N2CCN(C(=O)c3c(-c4ccccc4)noc3C)CC2)cc1 | -4.97
20 | O=C(NN1C(=O)c2ccccc2NC1c1ccccn1)c1ccc([N+](=O)[O-])cc1 (centres unmarked) | -16.1
21 | Cc1ccc(-c2cc3c(nn2)-c2ccccc2C3=O)cc1 | 11.7
22 | CN(C)C(=S)Nc1ccc2c(c1)OCO2 | 18.7
23 | O=c1cc(O)nc[nH]1 | 17.3

Row | Compound | hERG current change (%, negative = inhibition) at 10uM [%]
24 | CCN(CC)CCN(C(=O)/C=C/c1cccs1)c1nc2ccc(Cl)cc2s1.Cl | 13.7
25 | Cc1cccc(C)c1CC(=O)N1CCOCC1 | 13.7
26 | CCc1ccccc1NC1c2ccccc2C(=O)N1c1cccnc1 (centres unmarked) | -8.11
27 | CC(C)C[C@H](NC(=O)c1nc[nH]c1C(=O)N[C@@H](CC(C)C)C(=O)OCc1ccccc1)C(=O)OCc1ccccc1 | 16.2
28 | Cc1[nH]n(-c2ccccc2)c(=O)c1C=Nc1cccc2cccnc12 | -11.2
29 | N/C(=N\OC(=O)c1ccc(Cl)cc1)c1ccn[nH]1 | 14.7
30 | O=C(NCCCN=C1NS(=O)(=O)c2ccccc21)c1ccc(S(=O)(=O)N2CCOCC2)cc1 | 4.24
31 | CC(C)C(=O)c1cn(CC(=O)O)c2ccccc12 | 8.27
32 | NC(=O)COC(=O)c1cccc(S(=O)(=O)N2CCN(c3ccccc3)CC2)c1 | 12.7
33 | O=C(NCCc1ccccc1)c1ccccc1Cl | 3.33
34 | Cc1ccc(S(=O)(=O)N/N=C/c2cn(C)nc2C)cc1 | -2.68
35 | CC(OC(=O)c1cccc(-n2cnnn2)c1)C(=O)Nc1ccccc1F (centres unmarked) | -11.5
36 | O=C(NC(NC(=S)Nc1c(Cl)cc(Cl)cc1Cl)C(Cl)(Cl)Cl)OCc1ccccc1 (centres unmarked) | 2.82
37 | CCOC(=O)N1CCN(C(=O)c2ccc3c(=O)n(-c4ccc(OC)cc4OC)c(=S)[nH]c3c2)CC1 | 8.51
38 | CC(=O)c1c2c3c(cccc3n(C)c1=O)C(=O)c1ccccc1-2 | -1.1
39 | Cl.OCCNc1nc(Nc2ccc(Br)cc2)nc2ccccc12 | -36.3
40 | COc1cc(CN(C(=S)NCC(=O)NC2CC2)C2CCCC2)cc(OC)c1OC | -1.45
41 | CC(=O)Nc1ncc(Cc2cccc(Cl)c2Cl)s1 | 15.8
42 | Cc1ccc(-c2nn(C)c(=O)c3ccccc23)cc1CN1CCCCC1 | -15
43 | O=C(CSc1nnnn1Cc1ccccc1)NCCc1ccccc1 | 1.1
44 | O=C(NCSc1ccnc(SCNC(=O)c2ccccc2)n1)c1ccccc1 | -28
45 | O=C(NC1CCCCCC1)C1c2ccccc2C(=O)N1C1CC1 (centres unmarked) | 10.3
46 | C=CCNC(=O)Cn1c(=O)c2c(ncn2CCC(C)C)n(Cc2ccccc2)c1=O | -1.69

Row | Compound | hERG current change (%, negative = inhibition) at 10uM [%]
47 | COc1ccc(OC)c(-c2nc(C(N)=O)c3[nH]c(=O)n(-c4ccc(F)cc4)c3n2)c1 | -1.45
48 | O=C(Nc1ccccc1F)c1cc(S(=O)(=O)N2CCCCC2)cs1 | -0.745
49 | CC(=O)Nc1cccc(NS(=O)(=O)Cc2ccc(Cl)cc2)c1 | 6.35
50 | CCCCN(CC)S(=O)(=O)N1CCC(C(=O)NCc2ccc(F)cc2)CC1 | -6.81
51 | CCOCC(=O)Nc1cccc(C(=O)OCC)c1 | -8.5
52 | COc1cccc(CNn2cn[nH]c2=S)c1OCc1ccccc1 | -3.37
53 | COc1ccccc1CC(=O)N1CCN(c2ccc(F)cc2)CC1 | -11.1
54 | CCOc1ccc(CCN2CN(C3CCCCC3)CNC2=S)cc1OCC | -8.05
55 | COc1ccc(OC)c(C2=NOC(C(=O)Nc3cc(C)on3)C2)c1 (centres unmarked) | 17.2
56 | CN1CCN(S(=O)(=O)c2ccc(Sc3nc4ccccc4[nH]3)c3nsnc23)CC1 | -1.53
57 | Cc1cccc(NC2=NC(C)(C)N=C(N)N2)c1C | 16.5
58 | Cc1cc(C)nc(N2C(=O)CC(Cc3ccc(Cl)cc3)C2=O)n1 (centres unmarked) | 7.04
59 | Nn1c(SCC(=O)NC2CCS(=O)(=O)C2)nnc1-c1cccs1 (centres unmarked) | 16.7
60 | Cc1ccc2c(c1)Oc1ccccc1C=C2C(=O)O | 8.5
61 | Cc1ccc(-c2csc(N3CCC(C(N)=O)CC3)n2)cc1 | 20.2
62 | NS(=O)(=O)c1ccc(N2CCOCC2)c(C(=O)NCCCSc2ccccc2)c1 | -35.1
63 | COC(=O)CSc1nc(NC#N)nc(NC(C)(C)C)n1 | 9.11
64 | NC(=S)N/N=C/c1coc2ccc(Br)cc2c1=O | 25.9
65 | Nc1nc(Cl)cc(Sc2ccc3ccccc3c2)n1 | 14.1
66 | O=C(COc1ccc2c(c1)CCC2)NCc1cccc(Cl)c1 | 0.911
67 | COc1cccc(-c2c(NC(=O)c3ccco3)oc3ccccc3c2=O)c1 | 6.14
68 | COc1cc(OC)c(OC)cc1/C=N/n1c(-c2n[nH]c3c2CCC3)n[nH]c1=S | 19.6
69 | O=C(NCc1cccnc1)c1cnc2n(c1=O)CCS2 | 1.27

Row | Compound | hERG current change (%, negative = inhibition) at 10uM [%]
70 | COc1ccc(C)cc1Nc1n[n+](-c2ccccc2)c(-c2ccc(OC)c(OC)c2OC)s1.[Cl-] | -71.8
71 | CC(C)(CC(=O)O)CC(=O)N1CCCN(c2nccc(C(F)(F)F)n2)CC1 | 17.8
72 | Cc1ccc(N2C(=O)SC(Cc3ccccc3)C2=O)cc1 (centres unmarked) | 13.7
73 | Cn1nnnc1SCC(=O)NNC(=O)c1ccc(Cl)cc1 | 7.44
74 | N#Cc1c(Cl)nc(SCc2ccccc2)nc1-c1ccccc1 | 8.45
75 | CC(=O)NNC(=O)N1Cc2ccccc2Oc2ccc(Cl)cc21 | 7.95
76 | CN1CCN(c2nc(-c3cccs3)nc3ccccc23)CC1 | -73.9
77 | c1cc2cc(-c3c(-c4ccc5c(c4)OCO5)noc3-c3ccsc3)ccc2[nH]1 | 19.4
78 | Cc1ccc2cc(CN(c3ccc(C)c(C)c3)S(C)(=O)=O)c(=O)[nH]c2c1 | 26.7
79 | COc1ccc(C(C)=O)cc1CSCC(=O)O | 24.8
80 | COc1ccc(CCC(=O)Nc2cc3c4c(c2)CCC(=O)N4CCC3)cc1 | -10.3
81 | CCSc1nnc(N2C(=O)CC(c3ccsc3)C3=C2CC(C)(C)CC3=O)s1 (centres unmarked) | -6.24
82 | CCCCOC(=O)Cn1c(=O)n(CC(=O)OCCCC)c2ccccc21 | -33.9
83 | C/C(CCC(C)C)=N\NC(=S)Nc1cc(S(=O)(=O)N2CCOCC2)ccc1N1CCOCC1 | -18.5
84 | O=Cc1cccnc1SCc1ccccc1 | 6.97
85 | Cc1ccc(NC(=O)NCc2ccc3c(c2)OCO3)c(C)c1 | 6.35
86 | C=C(C)c1cccc(C(C)(C)NC(=O)Nn2cnnc2)c1 | 8.95
87 | Cc1ccc(C(=O)Nc2ccc(OCc3ccccc3)cc2)s1 | 1.58
88 | CCOc1ccc(C(C)NC(=O)Nc2ccc(F)cc2F)cc1 (centres unmarked) | -0.408
89 | CCN(CC)CCNC(=O)CNC(=O)c1nn(-c2ccc(OC)cc2)c(=O)c2ccccc12 | 1.57
